# Assay results reported in PubChem BioAssay AID1460 (National Center for Advancing Translational Sciences (NCATS), 2008).
# In all, about 270,000 compounds went through this assay and about 5,800 (2.1%) were called active. This list was built around the results that the source calls inconclusive (neither active nor inactive); the mix of calls is not that of the screen. The call rests on the fitted dose curve; in most records, active means well fitted inhibition curve with a large enough effect; inconclusive means small, poorly fitted or top-dose-only effect; inactive means flat fitted curve, though single readings scatter. A potency beside an inconclusive call is a rough fit, not a confirmed value.
# Target: Microtubule-associated protein tau (Homo sapiens) (UniProt P10636)
# Sequence of UniProt P10636 (P10636 whole entry, looked up): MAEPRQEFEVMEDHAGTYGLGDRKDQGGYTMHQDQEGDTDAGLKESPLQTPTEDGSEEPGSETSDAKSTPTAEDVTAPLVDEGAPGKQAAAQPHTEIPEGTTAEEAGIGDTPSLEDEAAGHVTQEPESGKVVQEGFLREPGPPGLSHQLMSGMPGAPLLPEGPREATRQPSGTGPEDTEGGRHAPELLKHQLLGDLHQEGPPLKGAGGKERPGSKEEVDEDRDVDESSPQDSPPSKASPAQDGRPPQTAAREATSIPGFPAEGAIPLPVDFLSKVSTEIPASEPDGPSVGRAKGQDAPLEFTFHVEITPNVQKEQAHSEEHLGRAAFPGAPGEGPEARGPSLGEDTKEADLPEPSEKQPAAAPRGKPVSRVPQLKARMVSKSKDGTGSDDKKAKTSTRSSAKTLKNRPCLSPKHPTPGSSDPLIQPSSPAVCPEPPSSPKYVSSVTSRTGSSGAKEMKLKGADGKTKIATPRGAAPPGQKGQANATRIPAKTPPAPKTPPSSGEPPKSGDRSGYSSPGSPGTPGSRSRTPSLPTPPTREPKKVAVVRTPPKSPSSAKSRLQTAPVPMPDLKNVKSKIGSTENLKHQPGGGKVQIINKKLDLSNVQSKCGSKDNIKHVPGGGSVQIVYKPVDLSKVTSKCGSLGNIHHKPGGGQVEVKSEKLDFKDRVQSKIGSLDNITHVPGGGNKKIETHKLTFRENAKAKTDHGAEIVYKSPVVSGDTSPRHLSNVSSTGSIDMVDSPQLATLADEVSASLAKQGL
# Assay: qHTS for Inhibitors of Tau Fibril Formation, Thioflavin T Binding; further: nearly all actives have a fitted effect of over 55% in size
# Settings: recombinant tau K18 P301L, heparin-induced fibrillization, ThT fluorescence; series mostly up to 57.4 µM
# Procedure, shortened: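 Using a mix of unlabeled (15 uM) and Alexa 594-labeled (0.24 uM) tau K18 P301L, heparin-triggered fibrillization over 6 hr at 37 C was scored by ThT fluorescence.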
# Potency means the concentration at half of the fitted maximal effect; tags describe the fitted curve by direction and shape.
row,SMILES,Potency
1,O=C(Nc1ncc2c(n1)-c1ccccc1OC2)c1cccc([N+](=O)[O-])c1,"inconclusive: 22.4 µM [inhibitor, partial curve]"
2,CCc1ccc(CN2CCc3nc(Nc4ccc5c(c4)OCCO5)ncc3C2)cc1,"inconclusive: 11.2 µM [inhibitor, partial curve]"
3,COc1ccc(NC(=O)N2CCN(c3nc(-c4cccc(OC)c4)cs3)CC2)cc1,"inconclusive: 7.94 µM [inhibitor, partial curve]"
4,COc1c(C)cc(Br)cc1C(=O)Nc1ccc(Cc2ccncc2)cc1,"inconclusive: 22.4 µM [inhibitor, single point]"
5,COc1cccc(-c2nc(CS(=O)CC(=O)NCc3ccc4c(c3)OCO4)c(C)o2)c1 (configuration not stated),"inconclusive: 20 µM [inhibitor, single point]"
6,CC[C@@H]1C(c2ccccc2)=NN(c2ccccc2)[C@H]1C(=O)N1CCOC1=O,"inconclusive: 28.2 µM [inhibitor, partial curve]"
7,CC1(C)CC(=O)C(CC2C(=O)CC(C)(C)CC2=O)C(=O)C1,active: 10 µM
8,CC(C)(C)C1=CC(=O)C(=O)C(C(C)(C)C)=C1,"inconclusive: 35.5 µM [inhibitor, single point]"
9,O=C(CC1NCCNC1=O)Nc1cccc(F)c1 (configuration not stated),inactive
10,Cc1ccc(C(=O)Nc2nc(-c3ccccn3)cs2)o1,"inconclusive: 25.1 µM [inhibitor, partial curve]"
11,Cc1ccc(Nc2c([N+](=O)[O-])c(=O)oc3ccccc23)cc1C,"inconclusive: 17.8 µM [inhibitor, partial curve]"
12,COCCCNC(=O)CCc1nnc(Cc2ccc(-c3ccccc3)cc2)o1,inactive
13,Cc1ccc(NCCC(=O)c2ccc(Br)cc2)cc1,"inconclusive: 6.31 µM [activator, single point]"
14,COc1cccc(-n2c(SCC(=O)Nc3nccs3)nnc2-c2ccoc2C)c1,inactive
15,Cc1ccc(Nc2n[nH]c(C)c2[N+](=O)[O-])cc1,"inconclusive: 14.1 µM [inhibitor, partial curve]"
16,COc1ccc2nc(NC(=O)c3cnccn3)sc2c1,"inconclusive: 12.6 µM [inhibitor, partial curve]"
17,O=C(NCc1cccs1)c1ccccc1F,inactive
18,O=C(CSc1nnnn1-c1ccc(O)cc1)Nc1cccc(S(=O)(=O)N2CCCC2)c1,inactive
19,Clc1ccc(CSc2nc(NCCc3ccccc3)c3ccccc3n2)cc1,inactive
20,O=c1[nH]c(S)c(/C=C2\C=Nc3ccccc32)s1,active: 1.41 µM
21,Cc1cccc2sc(N3CCN(C(=O)c4ccco4)CC3)nc12,"inconclusive: 14.1 µM [inhibitor, partial curve]"
22,FC(F)(F)c1cc(CO[C@H]2CCCN[C@H]2c2ccccc2)cc(C(F)(F)F)c1,"inconclusive: 17.8 µM [inhibitor, partial curve]"
23,CCOC(=O)c1sc(N)c(C(=O)Nc2ccccc2OC)c1C,"inconclusive: 10 µM [inhibitor, partial curve]"
24,CC1=C(C)/C(=N\OS(=O)(=O)c2ccc(C)cc2)C=CC1=O,active: 10 µM

row,SMILES,Potency
1,CCOc1ccc(C(=O)CSCCC(=O)O)cc1,"inconclusive: 28.2 µM [inhibitor, partial curve]"
2,CSc1nn(Cc2cccc(F)c2)c(N(C(C)=O)C(C)=O)c1S(=O)(=O)c1ccccc1,"inconclusive: 35.5 µM [inhibitor, single point]"
3,Cn1c(Cc2ccccc2)nnc1SCC(=O)c1ccc(Br)s1,"inconclusive: 28.2 µM [inhibitor, single point]"
4,Nc1nnc(Cc2c[nH]c3ccccc23)s1,"inconclusive: 39.8 µM [inhibitor, single point]"
5,CCc1cccc(C)c1NC(=O)c1cnn(-c2ccc(F)cc2)c1-n1cccc1,inactive
6,Cc1ccc(NC(=O)Nc2cccs2)cc1,"inconclusive: 12.6 µM [inhibitor, partial curve]"
7,C=CCSc1nc2c(c(=O)[nH]c(=O)n2C)n1CC,"inconclusive: 17.8 µM [inhibitor, single point]"
8,COc1ccc(OC)c(-c2c3c([nH]c(=S)c2C#N)CCCC3)c1,inactive
9,CC(=O)c1ccc(N2CCN(C(=O)c3ccc4nc[nH]c4c3)CC2)cc1,"inconclusive: 20 µM [inhibitor, single point]"
10,O=C(O)c1ccc(NCCC2=CCCCC2)c([N+](=O)[O-])c1,"inconclusive: 10 µM [inhibitor, partial curve]"
11,Cn1c2ccccc2c2ncn(CCC3=CCCCC3)c(=O)c21,"inconclusive: 15.8 µM [inhibitor, partial curve]"
12,Cc1cc(-c2nnc(SCC(=O)Nc3nccs3)o2)no1,"inconclusive: 44.7 µM [inhibitor, single point]"
13,COC(=O)C1=C(C(=O)OC)[C@@H]2N(C)c3ccccc3[C@@]23C[C@@H](C(=O)OC)N(C(=O)c2cc(C)oc2C)C3=N1,"inconclusive: 12.6 µM [inhibitor, single point]"
14,CCN(CCCNC(=O)CCCCn1c(=O)[nH]c2ccccc2c1=O)c1ccccc1,"inconclusive: 15.8 µM [inhibitor, partial curve, poor fit]"
15,CC[C@@H]1Cn2c(c3nc(-c4ccccc4)nc-3n(C)c2=O)N1,"inconclusive: 11.2 µM [inhibitor, partial curve, poor fit]"
16,CCC(=O)c1cc(F)c(N2CCN(C(=O)Cc3ccccc3)CC2)cc1C,inactive
17,COc1ccccc1C(=O)NC(=S)Nc1ccc(S(=O)(=O)N2CCN(C)CC2)cc1,inactive
18,O=C(Nc1ccc(Cl)cc1)N1CCc2[nH]c3ccccc3c2C1,"inconclusive: 17.8 µM [inhibitor, partial curve]"
19,CCN(CC)S(=O)(=O)c1ccc(/C=C/C(=O)Nc2ccc(N3CCOCC3)cc2)cc1,active: 15.8 µM
20,Cc1noc(C)c1C(=O)N1CCN(c2ccc(OCc3ccccc3)cc2)CC1,"inconclusive: 14.1 µM [inhibitor, partial curve]"
21,CCN(CC)c1ccc2cc(C#N)c(=O)oc2c1,"inconclusive: 3.55 µM [activator, single point]"
22,CS(=O)(=O)c1ccc2nc(NC(=O)c3ccc(NS(=O)(=O)c4cccc([N+](=O)[O-])c4)cc3)sc2c1,"inconclusive: 1.12 µM [inhibitor, full curve]"
23,CC(C)C(=O)NCCCc1ccccc1,inactive
24,CSc1nc(C)cc(SCC(=O)N/N=C/c2ccccc2)n1,"inconclusive: 39.8 µM [inhibitor, single point]"

row,SMILES,Potency
1,COc1ccc(C2CC(=O)c3sc(NC(C)=O)nc3C2)cc1 (configuration not stated),"inconclusive: 22.4 µM [inhibitor, single point]"
2,O=C(COc1ccccc1)N(Cc1ccco1)c1ccc(O)cc1,inactive
3,COc1ccc(Nc2oc(COc3ccccc3OC)nc2C#N)cc1,"inconclusive: 39.8 µM [inhibitor, single point]"
4,Cc1nnc(N/N=C\c2ccc(-c3cccc(C(=O)O)c3)o2)n1N,"inconclusive: 25.1 µM [inhibitor, partial curve]"
5,Cc1ccc(C)c(CN2C(=O)c3ccccc3S(=O)(=O)c3ccc(C(=O)N4CCOCC4)cc32)c1,inactive
6,C/C(=N\NC(=O)c1cccc(Br)c1)c1cccc(NC(=O)c2ccc(C)o2)c1,"inconclusive: 7.94 µM [inhibitor, partial curve]"
7,COC(=O)CC1=C(C(=O)OC)C(c2cc(OC)c(OC)cc2OC)C(C#N)=C(N)O1 (configuration not stated),"inconclusive: 12.6 µM [inhibitor, partial curve, poor fit]"
8,CCOc1ccc(CNC(=O)Cn2ncc3c(=O)oc4ccc(C)cc4c32)cc1,inactive
9,CC1=CC(=O)C=C(C)C1=NOC(=O)/C=C\c1ccccc1,active: 15.8 µM
10,COc1ccc(Cl)cc1N(C)C(=O)Cn1cnc2sc(C)c(S(=O)(=O)N3CCN(c4ncccn4)CC3)c2c1=O,inactive
11,Cc1ccc(NC(=O)c2sc3nc(N)c(C#N)cc3c2N)cc1,"inconclusive: 3.98 µM [inhibitor, full curve]"
12,CCC(Sc1nnc(C)s1)C(=O)Nc1nccs1 (configuration not stated),inactive
13,COc1ccccc1C(=O)O/N=C(\N)c1ccccc1Cl,inactive
14,CCOC(=O)c1c(C)[nH]c(C)c1S(=O)(=O)N(C)CC(=O)N1CCN(c2ccccc2OC)CC1,inactive
15,CCOC(=O)N1CCN(C(=O)CN(c2ccc(C)cc2C)S(=O)(=O)c2ccccc2)CC1,inactive
16,CSC(SC)=C(C#N)C(=O)c1ccccc1,active: 20 µM
17,CCn1c(-c2ccc3[nH]c(C)c(C)c3c2)n[nH]c1=S,"inconclusive: 28.2 µM [inhibitor, partial curve]"
18,CC(=O)NCc1ccc2[nH]c(C)cc2c1,"inconclusive: 20 µM [inhibitor, single point]"
19,Nc1[nH]n(-c2ccccc2)c(=O)c1N=Nc1ccc2ncsc2c1,active: 2.24 µM
20,O=C(CCCCn1c(=O)[nH]c2ccsc2c1=O)N1CCN(c2cccc(Cl)c2)CC1,"inconclusive: 31.6 µM [inhibitor, partial curve]"
21,COc1ccc(Nc2c([N+](=O)[O-])ccc3c2=NC2(CCCCC2)N=3)cc1,active: 15.8 µM
22,COC(=O)c1ccc(Sc2nnnn2-c2ccccc2)c([N+](=O)[O-])c1,"inconclusive: 20 µM [inhibitor, partial curve]"
23,CCN(CC)CCCNC(=O)Cn1c(-c2cccs2)cc2cc(Cl)ccc21,"inconclusive: 22.4 µM [inhibitor, single point]"
24,COc1ccccc1N(C(=O)c1ccncc1)c1nc(-c2ccc([N+](=O)[O-])cc2)cs1,"inconclusive: 15.8 µM [inhibitor, partial curve]"
